Laboratory results taken from the supplement of paper PMC10037445.
Whole data set: some 2,900 compounds, median “NF-kB SEAP reporter activity, fold change vs agonist alone” near 0.99, cut for the highest 2% near 2.6. Some of the results follow.

Experiments:
RAW-Dual [1] = test: NF-kB SEAP reporter activity, fold change vs agonist alone; cytotoxicity flag (confluency mask): cytotoxic (confluency <70% of control); higher = enhanced NF-kB activity
Outline: (§1)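 RAW-Dual macrophages (50,000 cells/well in DMEM, 384-well plates) received 50 nL of library stock by pin tool, then a PRR agonist 1 h later, and were kept at 37 °C, 5% CO2. After 20 hours, supernatant was read for IRF by QuantiLuc luminescence and for NF-κB by QuantiBlue absorbance at 620 nm. Reporter activity is fold change over agonist-alone wells. Cytotoxic wells had IncuCyte confluency below 70% of agonist controls in both mask sets.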

RAW-Dual [2] = test: NF-kB SEAP reporter activity, fold change vs agonist alone; higher = enhanced NF-kB activity; settings: library stock concentration (final ~1000-fold dilution): 10 mM
Outline: as §1

RAW-Dual [3] = test: NF-kB SEAP reporter activity, fold change vs agonist alone; cytotoxicity flag (confluency mask): not cytotoxic; higher = enhanced NF-kB activity
Outline: as §1

[4] = agonist: ODN 1826 (TLR9) 0.5 ug/mL
[5] = agonist: Pam2CSK4 (TLR2/6) 0.1 ug/mL
[6] = agonist: Pam3CSK4 (TLR2/1) 0.1 ug/mL
[7] = cytotoxicity flag (confluency mask): cytotoxic (confluency <70% of control), agonist: MPLA (TLR4) […]
[8] = cytotoxicity flag (confluency mask): not cytotoxic, agonist: Imiquimod (TLR7) […]
[9] = cytotoxicity flag (confluency mask): not cytotoxic, agonist: MPLA (TLR4) […]

C=CC1CC1(NC(=O)C1CC(Oc2ncc(OC)c3ccc(Cl)cc23)CN1C(=O)C(NC(=O)OC(C)(C)C)C(C)(C)C)C(=O)NS(=O)(=O)C1CC1 (stereo not given) (library stock concentration (final ~1000-fold dilution): 10 mM)
NF-kB SEAP reporter activity (RAW-Dual [1]; agonist: LPS (TLR4) 0.1 ug/mL): 1.1 | NF-kB SEAP reporter activity (RAW-Dual [1]; [4]): 0.915 | NF-kB SEAP reporter activity (RAW-Dual [1]; [5]): 0.518 | NF-kB SEAP reporter activity (RAW-Dual [1]; [6]): 0.508

C=CC1CC1(NC(=O)C1CC(Oc2ncc(OC)c3ccc(Cl)cc23)CN1C(=O)C(NC(=O)OC(C)(C)C)C(C)(C)C)C(=O)NS(=O)(=O)C1CC1 (stereo not given)
NF-kB SEAP reporter activity (RAW-Dual [2]; [7]): 1.06

CNC(=NC#N)NCCSCc1nc[nH]c1C
NF-kB SEAP reporter activity (RAW-Dual [2]; [8]): 0.92 | NF-kB SEAP reporter activity (RAW-Dual [2]; [9]): 0.882

CNC(=NC#N)NCCSCc1nc[nH]c1C (library stock concentration (final ~1000-fold dilution): 10 mM)
NF-kB SEAP reporter activity (RAW-Dual [3]; agonist: LPS (TLR4) 0.1 ug/mL): 1.08 | NF-kB SEAP reporter activity (RAW-Dual [3]; [4]): 1.05 | NF-kB SEAP reporter activity (RAW-Dual [3]; [5]): 1.02 | NF-kB SEAP reporter activity (RAW-Dual [3]; [6]): 1.16

CCC(Nc1ncnc2[nH]cnc12)c1oc2ccccc2c(=O)c1-c1cccc(F)c1 (stereo not given)
NF-kB SEAP reporter activity (RAW-Dual [2]; [8]): 0.582 | NF-kB SEAP reporter activity (RAW-Dual [2]; [9]): 0.924

CCC(Nc1ncnc2[nH]cnc12)c1oc2ccccc2c(=O)c1-c1cccc(F)c1 (stereo not given) (library stock concentration (final ~1000-fold dilution): 10 mM)
NF-kB SEAP reporter activity (RAW-Dual [3]; agonist: LPS (TLR4) 0.1 ug/mL): 0.907 | NF-kB SEAP reporter activity (RAW-Dual [3]; [4]): 0.718 | NF-kB SEAP reporter activity (RAW-Dual [3]; [5]): 0.443 | NF-kB SEAP reporter activity (RAW-Dual [3]; [6]): 0.61

O=C(O)c1ccc(/C=C2/SC(=S)N(Cc3cccc(C(F)(F)F)c3)C2=O)cc1 (library stock concentration (final ~1000-fold dilution): 10 mM)
NF-kB SEAP reporter activity (RAW-Dual [3]; agonist: LPS (TLR4) 0.1 ug/mL): 0.619 | NF-kB SEAP reporter activity (RAW-Dual [3]; [4]): 0.737 | NF-kB SEAP reporter activity (RAW-Dual [3]; [5]): 0.832 | NF-kB SEAP reporter activity (RAW-Dual [3]; [6]): 0.5

O=C(O)c1ccc(/C=C2/SC(=S)N(Cc3cccc(C(F)(F)F)c3)C2=O)cc1
NF-kB SEAP reporter activity (RAW-Dual [2]; [8]): 0.954 | NF-kB SEAP reporter activity (RAW-Dual [2]; [9]): 0.727

CCN(CC)CCNc1ccc(C)c2sc3ccccc3c(=O)c12 (library stock concentration (final ~1000-fold dilution): 10 mM)
NF-kB SEAP reporter activity (RAW-Dual [1]; agonist: LPS (TLR4) 0.1 ug/mL): 1.08 | NF-kB SEAP reporter activity (RAW-Dual [1]; [4]): 0.163 | NF-kB SEAP reporter activity (RAW-Dual [1]; [5]): 0.65 | NF-kB SEAP reporter activity (RAW-Dual [1]; [6]): 0.742

CCN(CC)CCNc1ccc(C)c2sc3ccccc3c(=O)c12
NF-kB SEAP reporter activity (RAW-Dual [2]; cytotoxicity flag (confluency mask): cytotoxic (confluency <70% of control), agonist: Imiquimod (TLR7) […]): 2.42 | NF-kB SEAP reporter activity (RAW-Dual [2]; [7]): 2.02

Cc1cc(Nc2cc(N3CCN(C)CC3)nc(/C=C/c3ccccc3)n2)n[nH]1.O=C(O)C(O)C(O)C(=O)O (library stock concentration (final ~1000-fold dilution): 10 mM)
NF-kB SEAP reporter activity (RAW-Dual [3]; agonist: LPS (TLR4) 0.1 ug/mL): 0.407 | NF-kB SEAP reporter activity (RAW-Dual [3]; [4]): 0.191 | NF-kB SEAP reporter activity (RAW-Dual [3]; [5]): 0.297 | NF-kB SEAP reporter activity (RAW-Dual [3]; [6]): 0.279

Cc1cc(Nc2cc(N3CCN(C)CC3)nc(/C=C/c3ccccc3)n2)n[nH]1.O=C(O)C(O)C(O)C(=O)O
NF-kB SEAP reporter activity (RAW-Dual [2]; [8]): 0.89 | NF-kB SEAP reporter activity (RAW-Dual [2]; [9]): 0.85
